Assay [1] addresses TAR-DNA binding protein 43 (TDP43) (human (endogenous in SH-SY5Y, HEK293 and human spinal cord tissue)) (UniProt Q13148). Put plainly: proximity ligation; PLA on ventral horn of human lumbar spinal cord tissue, ALS-affected patients and age-matched controls.
For assay [2] the target is unchanged. Description: co-IP; Pierce Co-IP kit; total lysate of control (not MMS-treated) differentiated SH-SY5Y cells on anti-TDP43 resin, overnight 4 °C; Western blot for MLH1 and MSH6. In general terms: A western blot detects proteins with antibodies after separation by electrophoresis.
Assay [3] has the same target. Put plainly: co-IP; Pierce Co-IP kit; 1 mg total lysate of MMS-treated differentiated SH-SY5Y cells on resin with covalently linked anti-TDP43 antibody, overnight 4 °C; Western blot for MLH1 and MSH6.
Assay [4] deals with MLH1 (human (endogenous in SH-SY5Y and human spinal cord tissue)) (UniProt P40692). Description: co-IP; reverse co-IP with anti-MLH1 and anti-MSH6 antibodies from MMS-treated cell cultures; blot for TDP43.
Assay [5] concerns the target MSH6 (human (endogenous in SH-SY5Y and human spinal cord tissue)) (UniProt P52701). The assay is described as above.
The target of assay [6] is MLH1 (human (endogenous in SH-SY5Y and human spinal cord tissue)) (UniProt P40692). Put plainly: co-IP; reverse co-IP with anti-MLH1 and anti-MSH6 antibodies from cell cultures not treated with MMS; blot for TDP43.
For assay [7], the target named is MSH6 (human (endogenous in SH-SY5Y and human spinal cord tissue)) (UniProt P52701). The description is as above.

By UniProt entry, the sequences of proteins in these tests, tags left out.
UniProt Q13148: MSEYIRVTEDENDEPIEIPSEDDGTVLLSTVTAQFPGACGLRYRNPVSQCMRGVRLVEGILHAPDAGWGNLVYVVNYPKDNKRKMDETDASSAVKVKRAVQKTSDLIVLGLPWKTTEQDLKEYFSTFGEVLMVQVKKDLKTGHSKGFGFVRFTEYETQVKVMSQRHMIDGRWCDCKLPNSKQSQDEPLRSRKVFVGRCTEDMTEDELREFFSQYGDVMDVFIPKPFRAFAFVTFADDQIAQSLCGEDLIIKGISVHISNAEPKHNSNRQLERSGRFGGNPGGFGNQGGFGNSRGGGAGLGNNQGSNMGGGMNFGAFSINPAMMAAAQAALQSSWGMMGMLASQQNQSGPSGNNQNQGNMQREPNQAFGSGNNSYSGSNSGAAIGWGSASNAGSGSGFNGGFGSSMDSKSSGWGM
UniProt P40692: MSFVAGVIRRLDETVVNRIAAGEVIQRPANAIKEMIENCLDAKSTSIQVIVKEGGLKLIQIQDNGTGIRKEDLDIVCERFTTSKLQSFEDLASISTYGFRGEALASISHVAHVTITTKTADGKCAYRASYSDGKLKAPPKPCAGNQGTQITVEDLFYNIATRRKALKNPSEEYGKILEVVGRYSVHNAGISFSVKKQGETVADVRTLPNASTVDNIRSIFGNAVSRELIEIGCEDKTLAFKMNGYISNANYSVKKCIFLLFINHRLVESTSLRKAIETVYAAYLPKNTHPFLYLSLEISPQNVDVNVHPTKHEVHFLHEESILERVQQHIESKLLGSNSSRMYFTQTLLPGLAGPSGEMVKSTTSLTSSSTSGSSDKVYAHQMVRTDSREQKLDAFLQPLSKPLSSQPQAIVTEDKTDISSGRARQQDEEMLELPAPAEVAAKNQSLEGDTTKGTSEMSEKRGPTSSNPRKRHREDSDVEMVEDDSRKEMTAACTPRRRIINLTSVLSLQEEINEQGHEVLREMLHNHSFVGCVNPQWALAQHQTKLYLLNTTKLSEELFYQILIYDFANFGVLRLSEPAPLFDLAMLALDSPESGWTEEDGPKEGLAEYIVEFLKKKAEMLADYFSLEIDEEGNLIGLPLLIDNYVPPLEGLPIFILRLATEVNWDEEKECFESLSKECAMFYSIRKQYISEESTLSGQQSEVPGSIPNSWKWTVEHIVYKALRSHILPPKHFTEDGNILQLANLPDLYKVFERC
UniProt P52701: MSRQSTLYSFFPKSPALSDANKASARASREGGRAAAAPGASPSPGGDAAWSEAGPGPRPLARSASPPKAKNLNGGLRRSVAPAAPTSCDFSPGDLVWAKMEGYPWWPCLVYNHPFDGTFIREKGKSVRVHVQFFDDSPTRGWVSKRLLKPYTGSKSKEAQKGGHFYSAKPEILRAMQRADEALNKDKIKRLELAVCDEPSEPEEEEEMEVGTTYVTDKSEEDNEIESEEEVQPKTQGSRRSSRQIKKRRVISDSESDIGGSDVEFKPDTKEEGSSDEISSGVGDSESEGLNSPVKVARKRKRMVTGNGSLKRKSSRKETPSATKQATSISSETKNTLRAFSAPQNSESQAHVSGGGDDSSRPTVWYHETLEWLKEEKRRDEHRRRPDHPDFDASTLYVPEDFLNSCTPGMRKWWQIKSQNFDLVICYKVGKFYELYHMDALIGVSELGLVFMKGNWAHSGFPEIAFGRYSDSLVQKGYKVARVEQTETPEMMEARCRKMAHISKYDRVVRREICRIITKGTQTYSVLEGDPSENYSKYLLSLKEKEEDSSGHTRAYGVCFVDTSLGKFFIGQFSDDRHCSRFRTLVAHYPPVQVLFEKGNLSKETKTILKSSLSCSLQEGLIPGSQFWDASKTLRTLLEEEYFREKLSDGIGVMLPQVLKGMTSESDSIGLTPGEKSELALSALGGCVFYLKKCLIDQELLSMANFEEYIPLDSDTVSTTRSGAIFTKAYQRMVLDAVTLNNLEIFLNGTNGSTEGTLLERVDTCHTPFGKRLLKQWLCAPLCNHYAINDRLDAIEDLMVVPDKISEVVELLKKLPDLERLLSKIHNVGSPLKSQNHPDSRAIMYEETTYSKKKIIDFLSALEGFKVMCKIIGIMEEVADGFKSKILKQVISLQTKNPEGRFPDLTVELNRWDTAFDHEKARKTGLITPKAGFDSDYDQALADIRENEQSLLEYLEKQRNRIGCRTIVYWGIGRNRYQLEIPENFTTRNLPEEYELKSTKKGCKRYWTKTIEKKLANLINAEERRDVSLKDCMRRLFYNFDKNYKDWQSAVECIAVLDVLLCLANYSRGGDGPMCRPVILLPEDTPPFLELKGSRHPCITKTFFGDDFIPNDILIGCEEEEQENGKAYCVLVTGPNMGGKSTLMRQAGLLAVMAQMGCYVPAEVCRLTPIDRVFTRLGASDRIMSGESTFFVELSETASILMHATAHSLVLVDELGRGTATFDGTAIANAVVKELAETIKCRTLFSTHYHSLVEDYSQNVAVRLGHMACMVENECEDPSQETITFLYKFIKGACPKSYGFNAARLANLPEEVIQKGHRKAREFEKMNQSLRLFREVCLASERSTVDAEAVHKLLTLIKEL

No constants are given. Whether binding was seen depends on the method and setting. In cells and extracts the contact can be indirect. Some binding calls cover weakened binding; strength is not graded here.

These results are taken from paper PMC11155029.

For MSH6 (from UniProt P52701 1-1360), the binding entry in assay [1] is listed as “binds”; in assay [2], “no binding (condition: cells not treated with MMS)”; in assay [3], “binds”.

In the case of “TAR-DNA binding protein 43 (TDP43) (from UniProt Q13148 1-414)”, the binding result is reported as “binds” in assay [4], “binds” in assay [5], “no binding (condition: cells not treated with MMS)” in assay [6] and “no binding (condition: cells not treated with MMS)” in assay [7].
